# Structures can show the parent of a compound that is named as a salt. The list shows a part of the results. Single values of this set are uncertain. Values with irradiation are relative to irradiated vehicle.
# System: A549-Dual
# Test: ISRE reporter (Lucia luciferase) activity, viability-corrected, relative to vehicle (fold change vs vehicle); higher = more activation of STING-IRF / NF-kB immune response reporter
# Settings: 1 µM; irradiation: 8 Gy/4 fr
row,SMILES,ISRE reporter
1,CCC(=O)OCC(=O)C1(OC(=O)CC)C(C)CC2C3CCC4=CC(=O)C=CC4(C)C3(Cl)C(O)CC21C (stereo not given) [Beclomethasone dipropionate],0.0499
2,CC(=O)Nc1ccc(OC(=O)c2ccccc2OC(C)=O)cc1 [Benorylate],0.761
3,Nc1ccccc1NC(=O)c1ccc(CNC(=O)OCc2cccnc2)cc1 [Entinostat (MS-275)],0.203
4,COc1cc(N2CCC(N3CCN(C)CC3)CC2)ccc1Nc1ncc(Cl)c(Nc2ccccc2P(C)(C)=O)n1,0.986
5,Cc1c(-c2ccc(-c3ccccc3F)cc2)nc2ccc(F)cc2c1C(=O)O [Brequinar],0.838
6,CCC1/C=C(\C)CC(C)CC(OC)C2OC(O)(C(=O)C(=O)N3CCCCC3C(=O)OC(/C(C)=C/C3CCC(Cl)C(OC)C3)C(C)C(O)CC1=O)C(C)CC2OC (stereo not given) [Pimecrolimus],1.26
7,COC(=O)/C=C/C(=O)OC [Dimethyl Fumarate],0.643
8,Cc1cc(Nc2ncc(Cl)c(Nc3ccccc3S(=O)(=O)C(C)C)n2)c(OC(C)C)cc1C1CCNCC1 [Ceritinib (LDK378)],1.08
9,Nc1nc(Cl)nc2c1ncn2C1CC(O)C(CO)O1 (stereo not given) [Cladribine],0.762
10,CC12CCC(=O)C=C1CCC1C2C(O)CC2(C)C1CCC2(O)C(=O)CO (stereo not given) [Hydrocortisone],0.0755
11,Cc1coc2c1C(=O)C(=O)c1c-2ccc2c(C)cccc12 [Tanshinone I],0.846
12,Cn1cnc([N+](=O)[O-])c1Sc1ncnc2nc[nH]c12 [Azathioprine],0.928
13,O=c1ccc2cc3ccoc3cc2o1 [Psoralen],0.826
14,CCC(=O)NS(=O)(=O)c1ccc(-c2c(-c3ccccc3)noc2C)cc1 [Parecoxib],0.841
15,COc1ccc(-c2ccc3cc(C(=O)O)ccc3c2)cc1C12CC3CC(CC(C3)C1)C2 [Adapalene],0.965
16,CCC(C(=O)O)c1ccc(N2Cc3ccccc3C2=O)cc1 (stereo not given) [Indobufen],0.864
17,COC1CC2CCC(C)C(O)(O2)C(=O)C(=O)N2CCCCC2C(=O)OC(C(C)CC2CCC(O)C(OC)C2)CC(=O)C(C)/C=C(\C)C(O)C(OC)C(=O)C(C)CC(C)/C=C/C=C/C=C/1C (stereo not given) [Rapamycin (Sirolimus)],0.946
18,COc1ccc(C2CNC(=O)C2)cc1OC1CCCC1 (stereo not given) [Rolipram],0.968
19,Nc1nc(N)c2nc(-c3ccccc3)c(N)nc2n1 [Triamterene],0.809
20,CN(C)CCN1C(=O)c2cccc3cc(N)cc(c23)C1=O [Amonafide],1.19

row,SMILES,ISRE reporter
1,CN1CCCC1CCOC(C)(c1ccccc1)c1ccc(Cl)cc1.O=C(O)/C=C/C(=O)O (stereo not given) [Clemastine Fumarate],1.33
2,CC12C=CC(=O)C=C1CCC1C3CC(O)C(O)(C(=O)CO)C3(C)CC(O)C12F (stereo not given) [Triamcinolone],0.0587
3,CC1CC2C3CCC4=CC(=O)C=CC4(C)C3C(=O)CC2(C)C1(O)C(=O)CO (stereo not given) [Meprednisone],0.642
4,CCS(=O)(=O)O.COC(=O)c1ccc2c(c1)NC(=O)/C2=C(\Nc1ccc(N(C)C(=O)CN2CCN(C)CC2)cc1)c1ccccc1 [Nintedanib Ethanesulfonate Salt],1.23
5,CCCCCCCCCCCCCCCCCCOP(=O)([O-])OC1CC[N+](C)(C)CC1 [Perifosine (KRX-0401)],0.861
6,CCC1(O)CC2CN(CCc3c([nH]c4ccccc34)C(C(=O)OC)(c3cc4c(cc3OC)N(C=O)C3C(O)(C(=O)OC)C(OC(C)=O)C5(CC)C=CCN6CCC43C65)C2)C1 (stereo not given) [Vincristine],0.182
7,Cl.Nc1ccn(C2OC(CO)C(O)C2O)c(=O)n1 (stereo not given) [Cytarabine hydrochloride],0.525
8,CC(=O)OC(C)C(C)C(=O)OCC12C3CC4(C)C(=CCC5C6(C)CCC(OC7OC(C(=O)[O][Na])C(OC8OC(CO)C(O)C(O)C8O)C(O)C7OC7OCC(O)C(O)C7O)C(C)(CO)C6CCC54C)C1CC(C)(C)C(O3)C2O (stereo not given) [Sodium Aescinate],1.04
9,CCC(=O)OC1(C(=O)SCF)C(C)CC2C3CC(F)C4=CC(=O)C=CC4(C)C3(F)C(O)CC21C (stereo not given) [Fluticasone propionate],0.0472
10,CCCCC1(COC(=O)CCC(=O)O)C(=O)N(c2ccccc2)N(c2ccccc2)C1=O [Suxibuzone],0.97
11,CS(=O)(=O)Nc1cc2occ(NC=O)c(=O)c2cc1Oc1ccccc1 [Iguratimod],0.623
12,COc1cc2nccc(Oc3ccc(NC(=O)Nc4cc(C)on4)c(Cl)c3)c2cc1OC [Tivozanib (AV-951)],0.521
13,Cc1ccc(S(=O)(=O)O)cc1.NC(=O)c1cccc2cn(-c3ccc(C4CCCNC4)cc3)nc12 (stereo not given) [Niraparib (MK-4827) tosylate],0.987
14,CC(C)OC(=O)CCC/C=C\CC1C(O)CC(O)C1CCC(O)CCc1ccccc1 (stereo not given) [Latanoprost],1.03
15,"O=c1[nH]cc(F)c(=O)[nH]1 [Fluorouracil (5-Fluoracil, 5-FU)]",1.01
16,CC1(C(=O)O)CCC2(C)CCC3(C)C(=CC(=O)C4C5(C)CCC(OC6OC(C(=O)O)C(O)C(O)C6OC6OC(C(=O)O)C(O)C(O)C6O)C(C)(C)C5CCC43C)C2C1.N.N (stereo not given) [Diammonium Glycyrrhizinate],0.836
17,"CC1(C)CCC(CN2CCN(c3ccc(C(=O)NS(=O)(=O)c4ccc(NCC5CCOCC5)c([N+](=O)[O-])c4)c(Oc4cnc5[nH]ccc5c4)c3)CC2)=C(c2ccc(Cl)cc2)C1 [Venetoclax (ABT-199, GDC-0199)]",0.673
18,CCN(CC)Cc1cc(Nc2ccnc3cc(Cl)ccc23)ccc1O.Cl.Cl [Amodiaquine hydrochloride],1.06
19,CCN(C(=O)c1c(O)c2c(Cl)cccc2n(C)c1=O)c1ccccc1 [Laquinimod],0.902
20,O=C(c1ccc(OCCN2CCCCC2)cc1)c1c(-c2ccc(O)cc2)sc2cc(O)ccc12 [Raloxifene],1.08
